# Measurements from the supplement of paper PMC7726561.
# Whole data set: some 1,100 sequences, median “thermal melting temperature (Tm) of peptide-HLA complex” near 58, cut for the lowest 2% near 42. The list shows a part of the results.
# Target: HLA-A*02:01
# Test: thermal melting temperature (Tm) of peptide-HLA complex; higher = more thermostable pHLA complex
# Conditions: C1R-A*02:01
# 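Further: cell lysates heated 10 min at 37–73 °C, remaining pHLA pulled down with pan-class I antibody, peptides quantified by DIA-MS versus 37 °C, Tm where half the complex is lost.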
row,Sequence,thermal melting temperature
1,GLYDSQNPPTV,59.7 °C
2,QLPNFAFSV,55.3 °C
3,ILINDAGEVRL,56.1 °C
4,FLLPHPGLQV,62.8 °C
5,FLNNQEYVL,57.8 °C
6,KIFDEILVNA,57.3 °C
7,SILSEVQQA,53.3 °C
8,ALAPGVRAV,60.2 °C
9,VLMKDVQEI,44.8 °C
10,FLMDFIHQV,62.2 °C
11,FLDEKTHEL,56.8 °C
12,FLLENSSKV,51.7 °C
13,FLLPIKTVGV,63 °C
14,YLQDYTDRV,55.9 °C
15,FQDEINWRL,50.9 °C
16,GLFSNDIPHV,62.4 °C
17,QVFPGLLERV,60.8 °C
18,GLDPTQFRV,57.3 °C
19,FILANEHNV,40.8 °C
20,FLEKLLPPV,60 °C
21,ALLEPEFILKA,48.4 °C
22,KLQEVGQVSV,52.3 °C
